PubChem BioAssay AID1768 (National Center for Advancing Translational Sciences (NCATS), 2009)
Among all 270,000 compounds or so, about 620 (0.23%) were called active. Inconclusive results, whose numbers are uncertain, are shown with a selection of clear calls. Calls come from the whole dose curve; as a rule, active = well fitted inhibition curve with a large enough effect in the polarisation, with a control signal flat (not every such curve was filed as active); inconclusive = small, poorly fitted or top-dose-only effect, or effect the other way, or a change in a side signal; inactive = no such curve, though single readings can be large or run the other way; the % refers to the polarisation. Potencies of inconclusive entries are doubtful fits and often do not repeat. A note “side channel” means that the fit belongs to a control or component signal, not to the main read-out.

Molecular target: Menin (Homo sapiens) (UniProt O00255)
Sequence of UniProt O00255 (O00255 whole entry, looked up): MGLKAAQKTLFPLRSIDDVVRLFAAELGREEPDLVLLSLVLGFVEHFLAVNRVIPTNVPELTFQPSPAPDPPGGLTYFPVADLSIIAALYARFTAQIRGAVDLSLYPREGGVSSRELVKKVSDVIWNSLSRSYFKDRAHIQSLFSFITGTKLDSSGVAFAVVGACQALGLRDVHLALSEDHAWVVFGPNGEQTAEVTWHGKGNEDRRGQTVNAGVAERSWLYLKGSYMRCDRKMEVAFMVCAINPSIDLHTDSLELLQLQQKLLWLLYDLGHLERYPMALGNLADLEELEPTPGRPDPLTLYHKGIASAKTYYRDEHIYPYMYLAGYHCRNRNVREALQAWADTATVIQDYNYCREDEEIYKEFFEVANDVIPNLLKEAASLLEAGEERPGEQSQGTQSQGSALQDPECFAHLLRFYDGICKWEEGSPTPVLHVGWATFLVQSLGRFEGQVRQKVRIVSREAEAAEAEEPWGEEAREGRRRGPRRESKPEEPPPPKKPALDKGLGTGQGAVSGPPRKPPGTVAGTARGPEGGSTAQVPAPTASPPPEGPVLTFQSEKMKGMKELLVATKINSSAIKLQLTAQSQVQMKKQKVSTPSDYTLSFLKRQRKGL
Test: qHTS Assay for Inhibitors Targeting the Menin-MLL Interaction in MLL Related Leukemias: Competition With Texas Red Labeled MLL-derived Mutant Peptide
Settings: fluorescence polarization; series mostly up to 61.6 µM
Potency is the fitted concentration of half-maximal effect; tags give direction and shape of the fitted curve or compound fluorescence and quenching.

Row | Compound | Potency
1 | CC1N(C)c2cccc3cccc(c23)N1C | inactive
2 | CC1=NN2C(=N)/C(=C\c3ccc(SCc4ccccc4)o3)C(=O)N=C2S1 | inconclusive: 22.4 µM [quencher, side channel, partial curve]
3 | Cc1ccc(NC(=O)C2(c3ccccc3)CC2(Cl)Cl)cc1C (centres undefined) | inconclusive: 10 µM [quencher, side channel, full curve, poor fit]
4 | O=C(O)c1cccc(NC(=O)c2ccc3c(c2)C(=O)N(c2ccccc2)C3=O)c1 | inactive
5 | Nc1nc2ccccc2n1C(=O)c1ccccc1 | inconclusive: 39.8 µM [inhibitor, single point]
6 | CC(Nc1ccc2c(c1)OCCO2)C(=O)Nc1ccc2c(c1)OCO2 (centres undefined) | inactive
7 | CC(C)=CCc1c(O)ccc2c1OC(c1ccc(O)c(O)c1)CC2=O (centres undefined) | inconclusive: 25.1 µM [quencher, side channel, partial curve]
8 | Cc1cc(C)cc(NC(=S)NCCc2c[nH]c3ccccc23)c1 | inconclusive: 14.1 µM [quencher, side channel, partial curve]
9 | CCOC(=O)c1c(C)[nH]c(=S)c(C#N)c1-c1ccc(OC)cc1 | inconclusive: 31.6 µM [inhibitor, single point]
10 | CCOc1ccccc1-c1nnc2n1N=C(c1ccccc1OC)CS2 | inconclusive: 35.5 µM [inhibitor, single point]
11 | O=C(Nc1ccc2c(c1)C(=O)NC2=O)c1ccccc1 | inactive
12 | O=C(CN1CCN(Cc2ccccc2)CC1)N/N=C/C=C/c1ccccc1[N+](=O)[O-] | inactive
13 | C=CCNc1nc(-c2cccc(OC)c2O)nc2ccccc12 | inconclusive: 17.8 µM [quencher, side channel, partial curve]
14 | CCOC(=O)C1CCCN(S(=O)(=O)c2ccc(OC)c3ccccc23)C1 (centres undefined) | inconclusive: 0.708 µM [inhibitor, partial curve, poor fit]
15 | COc1cccc(C(=O)NC(c2ccccc2)C2CCCC2)c1 (centres undefined) | inconclusive: 35.5 µM [fluorescent, side channel, partial curve]
16 | CC1(C)Cc2c(sc(NC(=O)c3ccccc3)c2C(=O)O)CO1 | inconclusive: 20 µM [quencher, side channel, partial curve]
17 | Cc1ccc(-c2nn(-c3cccc(F)c3)cc2CN(Cc2nccn2C)C(C)C)o1 | inconclusive: 3.16 µM [fluorescent, side channel, partial curve]
18 | Cc1cccc2sc(NNC(=O)c3ccc(S(=O)(=O)N4CCCC(C)C4)cc3)nc12 (centres undefined) | inconclusive: 28.2 µM [quencher, side channel, partial curve]
19 | COc1cc(OC)c(NC(=O)C(=O)CC(=O)c2ccc(C)cc2C)cc1Cl | inconclusive: 28.2 µM [quencher, side channel, single point]
20 | CC1CCC(C(C)C)C(P(=O)(c2ccccc2)c2ccccc2)C1 (centres undefined) | inactive

Row | Compound | Potency
21 | CN(Cc1ccccc1)CC(O)COc1ccc(CNCc2ccc(Cl)s2)cc1 (centres undefined) | inconclusive: 12.6 µM [fluorescent, side channel, partial curve]
22 | COc1ccc(NC(C)c2cc(Cl)ccc2O)cc1 (centres undefined) | inconclusive: 8.91 µM [quencher, side channel, single point]
23 | Cc1ccc(/C=C/C(=O)Nc2cc(S(N)(=O)=O)ccc2O)cc1 | inconclusive: 17.8 µM [quencher, side channel, single point]
24 | COc1ccc2nc(-c3cccc(N)c3)[nH]c2c1 | inconclusive: 17.8 µM [quencher, side channel, partial curve]
25 | COc1ccccc1N1CCN(C(=O)c2ccc(CN3CCc4ccccc4C3)cc2)CC1 | inconclusive: 12.6 µM [fluorescent, side channel, partial curve]
26 | COc1ccc(-n2c(O)c(/C=N/NS(=O)(=O)c3ccc(C)c([N+](=O)[O-])c3)c3ccccc3c2=O)cc1OC | inconclusive: 22.4 µM [quencher, side channel, partial curve]
27 | Cc1cccc(NC(=O)c2ccccc2OCC(=O)c2ccc(F)cc2)c1 | inconclusive: 14.1 µM [quencher, side channel, partial curve]
28 | COc1ccc(NC(=O)N2CCN(c3ccc([N+](=O)[O-])cc3)CC2)cc1OC | inconclusive: 28.2 µM [quencher, side channel, single point]
29 | CCn1c2ccccc2c2cc(N=C3SC(CC(=O)Nc4ccccc4OC)C(=O)N3CCOC)ccc21 (centres undefined) | inconclusive: 10 µM [quencher, side channel, partial curve]
30 | CCCC(=O)Nc1nc(C)c(-c2csc(Nc3ccc(Cl)cc3)n2)s1 | inconclusive: 7.08 µM [quencher, side channel, partial curve]
31 | N=C1/C(=C\c2ccc(-c3cc(Cl)cc(Cl)c3)o2)C(=O)N=C2SC=C(c3ccccc3)N12 | inconclusive: 10 µM [quencher, side channel, partial curve]
32 | N#C/C(=C\C=C\c1ccccc1)c1nc(-c2ccc(Cl)cc2)cs1 | inconclusive: 28.2 µM [quencher, side channel, single point]
33 | CSc1ccccc1C(=O)NCCSc1ccc(C)cc1 | inactive
34 | CSc1nc(C)c(Cl)c(C)c1C#N | inconclusive: 0.708 µM [inhibitor, full curve, poor fit]
35 | COc1ccccc1NC(=O)Nc1ccc(C)cn1 | inconclusive: 0.708 µM [inhibitor, full curve, poor fit]
36 | Cc1cc(C)c(C(=O)OCc2csc(CC(=O)Nc3ccccc3C)n2)c(C)c1 | inconclusive: 2.51 µM [fluorescent, side channel, full curve, poor fit]
37 | O=C(Nc1ccc(Br)cc1)c1cc(Br)c(Br)s1 | inconclusive: 8.91 µM [quencher, side channel, full curve]
38 | CCCN1C(=O)/C(=C/c2ccncc2)SC1=S | inactive
39 | Cc1cc(C)cc(C(=O)NCC(=O)NCCc2c[nH]c3ccccc23)c1 | inconclusive: 31.6 µM [fluorescent, side channel, single point]
